Test results from the supplement of paper PMC4967469.
IC50 is the fitted dose that halves viability relative to control wells, and lower means more sensitive; a limit (>, <) means that the fit lies beyond the doses tested. For AUC the same curve is integrated over the 256-fold range of doses and scaled to a fraction: 1 means no effect, lower means more sensitive. For some assays here: An inferred top dose was derived from the fitted curves, not read from the paper.

How the values were obtained:
Test in all cases: Viability of human cancer cell lines after 72 h of drug (GDSC screen)
UNC1215 = compound: O=C(c1ccc(C(=O)N2CCC(N3CCCC3)CC2)c(Nc2ccccc2)c1)N1CCC(N2CCCC2)CC1 [UNC1215]; conditions: top dose 1 µM; top dose inferred
Experimental: (§1)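 Human cancer cell lines in 384-well plates, medium with 10% serum, drug for 72 h over a 256-fold dose range (nine 2-fold or five 4-fold steps up to the top dose). Adherent lines were fixed and stained with the nucleic acid dye Syto60, suspension lines read with resazurin; signal relative to control wells, capped at 0 and 100%. One two-parameter sigmoid per drug and line, fitted in a mixed model over all curves with the slope shared within a line.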

OSI-027 = compound: COc1cccc2cc(-c3nc([C@H]4CC[C@H](C(=O)O)CC4)n4ncnc(N)c34)[nH]c12 [OSI-027]; conditions: top dose 20 µM
Experimental: as §1

VX-11e = compound: Cc1cnc(Nc2ccc(F)cc2Cl)nc1-c1c[nH]c(C(=O)N[C@H](CO)c2cccc(Cl)c2)c1 [VX-11e]; conditions: top dose 5.12 µM; top dose inferred
Experimental: as §1

CCT018159 = compound: CCc1cc(-c2n[nH]c(C)c2-c2ccc3c(c2)OCCO3)c(O)cc1O [CCT018159]; conditions: top dose 10 µM; top dose inferred
Experimental: as §1

Doxorubicin = compound: COc1cccc2c1C(=O)c1c(O)c3c(c(O)c1C2=O)C[C@@](O)(C(=O)CO)C[C@@H]3O[C@H]1C[C@H](N)[C@H](O)[C@H](C)O1 [Doxorubicin]; conditions: top dose 1.024 µM
Experimental: as §1

TG101348 = compound: Cc1cnc(Nc2ccc(OCCN3CCCC3)cc2)nc1Nc1cccc(S(=O)(=O)NC(C)(C)C)c1 [TG101348]; conditions: top dose 10.24 µM
Experimental: as §1

Dimethyloxalylglycine = compound: COC(=O)CNC(=O)C(=O)OC [Dimethyloxalylglycine]; conditions: top dose 4000 µM; top dose inferred
Experimental: as §1

BIX02189 = compound: CN(C)Cc1cccc(N=C(c2ccccc2)c2c(O)[nH]c3cc(C(=O)N(C)C)ccc23)c1 [BIX02189]; conditions: top dose 20 µM; top dose inferred
Experimental: as §1

BMX-IN-1 (QL-XII-61) = compound: C=CC(=O)Nc1cc(-n2c(=O)ccc3cnc4ccc(-c5ccc(NS(C)(=O)=O)cc5)cc4c32)ccc1C [BMX-IN-1 (QL-XII-61)]; conditions: top dose 10 µM; top dose inferred
Experimental: as §1

Vismodegib = compound: CS(=O)(=O)c1ccc(C(=O)Nc2ccc(Cl)c(-c3ccccn3)c2)c(Cl)c1 [Vismodegib]; conditions: top dose 10 µM; top dose inferred
Experimental: as §1

17-AAG = compound: C=CCNC1=C2C[C@@H](C)C[C@H](OC)[C@H](O)[C@@H](C)/C=C(\C)[C@H](OC(N)=O)[C@@H](OC)/C=C\C=C(/C)C(=O)NC(=CC1=O)C2=O [17-AAG]; conditions: top dose 1 µM
Experimental: as §1

Cell Line	AUC (UNC1215)	IC50 (UNC1215) [µM]	AUC (OSI-027)	IC50 (OSI-027) [µM]	AUC (VX-11e)	IC50 (VX-11e) [µM]	AUC (CCT018159)	IC50 (CCT018159) [µM]	AUC (Doxorubicin)	IC50 (Doxorubicin) [µM]	AUC (TG101348)	IC50 (TG101348) [µM]	AUC (Dimethyloxalylglycine)	IC50 (Dimethyloxalylglycine) [µM]	AUC (BIX02189)	IC50 (BIX02189) [µM]	AUC (BMX-IN-1 (QL-XII-61))	IC50 (BMX-IN-1 (QL-XII-61)) [µM]	AUC (Vismodegib)	IC50 (Vismodegib) [µM]	AUC (17-AAG)	IC50 (17-AAG) [µM]
COLO-829 (melanoma, adherent)	0.964	> 1	0.401	0.589	0.858	> 5.12	0.905	> 10	0.83	> 1.02	0.927	> 10.2	0.408	124	0.972	> 20	0.972	> 10				
IST-MES1 (mesothelioma, adherent)	0.983	> 1	0.943	> 20	0.987	> 5.12	0.98	> 10	0.682	0.207	0.786	4.47	0.737	1190	0.911	> 20	0.959	> 10				
NCI-H196 (small cell lung carcinoma, adherent)	0.982	> 1	0.929	> 20	0.954	> 5.12	0.972	> 10	0.869	1.02	0.859	9.08	0.553	351	0.969	> 20	0.981	> 10				
EPLC-272H (lung squamous cell carcinoma, adherent)	0.978	> 1	0.377	0.547	0.891	> 5.12	0.846	8.73	0.605	0.129	0.765	4.23	0.825	2830	0.908	> 20	0.963	> 10	0.982	> 10		
NCI-H441 (lung adenocarcinoma, adherent)	0.977	> 1	0.98	> 20	0.966	> 5.12	0.938	> 10	0.419	0.035	0.966	> 10.2	0.657	817	0.964	> 20	0.977	> 10	0.98	> 10		
VMRC-MELG (melanoma, adherent)	0.988	> 1	0.986	> 20	0.988	> 5.12	0.977	> 10	0.849	0.821	0.956	> 10.2	0.593	457	0.946	> 20	0.976	> 10	0.989	> 10		
NCI-H292 (lung adenocarcinoma, adherent)	0.976	> 1	0.414	0.692	0.52	0.366	0.918	> 10	0.474	0.0534	0.979	> 10.2	0.396	122	0.83	16.4	0.948	> 10				
LB2241-RCC (kidney, adherent)	0.975	> 1	0.982	> 20	0.975	> 5.12	0.886	> 10	0.708	0.268	0.955	> 10.2	0.564	383	0.977	> 20	0.957	> 10	0.893	> 10		
LS-123 (large intestine, adherent)	0.979	> 1	0.572	2.1	0.927	> 5.12	0.966	> 10	0.345	0.0205	0.896	> 10.2	0.808	2950	0.963	> 20	0.98	> 10	0.965	> 10		
H2803 (mesothelioma, adherent)	0.983	> 1	0.645	3.37	0.971	> 5.12	0.981	> 10	0.838	0.863	0.794	5.62	0.455	185	0.892	> 20	0.983	> 10				
WM278 (melanoma, adherent)	0.968	> 1	0.974	> 20	0.694	1.21	0.86	> 10	0.696	0.246	0.984	> 10.2	0.442	170	0.939	> 20	0.975	> 10	0.965	> 10		
H2804 (mesothelioma, adherent)	0.984	> 1	0.736	6.36	0.985	> 5.12	0.984	> 10	0.462	0.0499	0.747	3.56	0.459	191	0.967	> 20	0.972	> 10				
no-10 (glioma, adherent)	0.98	> 1	0.635	3.23	0.972	> 5.12	0.975	> 10	0.64	0.17	0.934	> 10.2	0.646	699	0.978	> 20	0.784	5.28	0.958	> 10		
BB65-RCC (kidney, adherent)	0.978	> 1	0.695	4.83	0.964	> 5.12	0.892	> 10	0.501	0.0646	0.9	> 10.2	0.679	861	0.963	> 20	0.929	> 10	0.976	> 10		
G-MEL (melanoma, adherent)	0.981	> 1	0.227	0.203	0.715	1.29			0.45	0.0469	0.775	4.01	0.851	3000	0.968	> 20	0.751	3.26	0.901	> 10		
Hs-445 (Hodgkin lymphoma, suspension)	0.988	> 1	0.594	2.21	0.958	> 5.12			0.35	0.0254	0.718	2.5	0.753	1250	0.912	> 20	0.773	3.6				
GP5d (large intestine, adherent)	0.99	> 1	0.839	11.6	0.918	> 5.12	0.987	> 10	0.455		0.853	6.75	0.652	628	0.958	> 20	0.99	> 10				
HCC38 (breast, adherent)	0.985	> 1	0.494	1.2	0.98	> 5.12	0.944	> 10			0.701	2.48	0.696	932	0.943	> 20	0.964	> 10	0.978	> 10	0.733	0.308
SW620 (large intestine, adherent)	0.989	> 1	0.539	1.58	0.83	2.72	0.859	6.79			0.741	2.84	0.759	1250	0.971	> 20	0.985	> 10	0.99	> 10	0.661	0.165
SW872 (soft tissue, adherent)	0.985	> 1	0.871	15.8	0.987	> 5.12	0.896	> 10	0.618	0.13	0.94	> 10.2	0.635	567	0.98	> 20	0.985	> 10				
NCI-H2122 (lung adenocarcinoma, adherent)	0.988	> 1	0.951	> 20	0.967	> 5.12	0.911	> 10	0.377	0.0301	0.909	> 10.2	0.283	63.8	0.984	> 20	0.987	> 10				
NCI-H747 (large intestine, adherent)	0.979	> 1	0.406	0.651	0.709	1.43	0.951	> 10			0.714	2.98	0.843	3780	0.881	> 20	0.961	> 10	0.981	> 10	0.72	0.306
RKO (large intestine, adherent)	0.987	> 1	0.564	1.84	0.654	0.826	0.838	6.08			0.904	> 10.2	0.794	1690	0.949	> 20	0.985	> 10	0.983	> 10	0.622	0.132
Hs940-T (melanoma, adherent)	0.981	> 1	0.621	2.9	0.984	> 5.12			0.547	0.0884	0.607	1.34	0.327	73.7	0.983	> 20	0.974	> 10				
TOV-112D (ovary, adherent)	0.981	> 1	0.141	0.0927	0.899	> 5.12	0.902	> 10			0.814	5.64	0.3	68.2	0.949	> 20	0.956	> 10	0.973	> 10	0.641	0.154
D-336MG (glioma, adherent)	0.947	> 1	0.494	1.2	0.973	> 5.12	0.89	> 10			0.743	3.96	0.816	3050	0.946	> 20	0.951	> 10	0.979	> 10	0.451	0.0442
NCI-H1915 (large cell lung carcinoma, adherent)	0.986	> 1	0.711	5.01	0.891	> 5.12	0.864	8.96	0.869	0.971	0.853	8.21	0.768	1520	0.927	> 20	0.986	> 10				
